These results are taken from patent publication US20040037830A1 (Genentech, published 2004).

The assay deals with T1, human fMLP receptor (cDNA of Boulay et al. in vector pRK5) (human, UniProt P21462 1-350).
T1 construct: whole, on cells
T1 sequence (looked up): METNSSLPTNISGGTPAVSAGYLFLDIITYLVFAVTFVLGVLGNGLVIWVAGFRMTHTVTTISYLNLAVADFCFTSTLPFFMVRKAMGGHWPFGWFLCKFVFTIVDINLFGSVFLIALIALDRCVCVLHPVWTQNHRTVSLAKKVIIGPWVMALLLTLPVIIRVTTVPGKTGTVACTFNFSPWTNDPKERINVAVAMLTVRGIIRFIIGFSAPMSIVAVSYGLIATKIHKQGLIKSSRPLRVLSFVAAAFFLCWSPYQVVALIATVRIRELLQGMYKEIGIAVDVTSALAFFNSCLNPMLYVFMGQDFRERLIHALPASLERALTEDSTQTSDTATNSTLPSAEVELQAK
In words: radioligand binding to transfected cells.

B1: human 72 amino acid IL-8 (interleukin-8), recombinant, made in E. coli (ligand)
chain: not shown
notes: mature; no residue limits are printed; also called rHuIL-8
As for B1, the binding result is recorded as “no binding”.
